Measurements reported in PubChem BioAssay AID1346428 (National Center for Advancing Translational Sciences (NCATS), 2018).
Among all 48,000 compounds or so, about 1,200 (2.5%) were called active. Inconclusive results (about 2%) are left out.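 How the source made its calls: active means activation of at least 60% and not above a set upper limit (about 1 call in 100 departs from these limits); inconclusive means activation of 40% to 60%, or above that upper limit; inactive means activation under 40%.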 The list shows a part of the results.

Each compound was assayed against Probable G-protein coupled receptor 32 (Homo sapiens) (UniProt O75388) (assay: qHTS for Agonists of Human Resolvin D1 Receptor DRV1). Details: CHO-K1 GPR32 beta-arrestin PathHunter luminescence, 90 min; at 76.9 µM; hits give high values; zero percent set by DMSO-only wells.
Method in brief: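 CHO-K1 cells stably expressing ProLink-tagged GPR32 and Enzyme Activator-tagged beta-arrestin were seeded at 2,500 cells/well overnight, exposed to compounds for 90 min at 37 °C, then read by beta-Gal complementation chemiluminescence after 1 h detection reagent.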
Further: 0% is about no effect.

UniProt O75388, sequence (O75388 whole entry, looked up): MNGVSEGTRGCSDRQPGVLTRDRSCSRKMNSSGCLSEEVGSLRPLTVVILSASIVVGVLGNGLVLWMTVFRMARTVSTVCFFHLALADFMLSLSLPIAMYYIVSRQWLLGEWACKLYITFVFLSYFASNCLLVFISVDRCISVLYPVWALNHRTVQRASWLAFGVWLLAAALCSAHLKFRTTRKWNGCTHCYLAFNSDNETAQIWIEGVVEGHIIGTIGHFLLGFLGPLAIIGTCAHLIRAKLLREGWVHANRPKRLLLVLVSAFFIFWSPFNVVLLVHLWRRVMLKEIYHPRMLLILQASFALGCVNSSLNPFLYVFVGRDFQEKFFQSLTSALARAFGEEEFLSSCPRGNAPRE

SMILES | activation
CCCc1nnc(NC(=O)c2nc(SCC)ncc2Cl)s1 | inactive: 3.16%
CCc1nn(CC(=O)N2CCCCC2)c(=O)c2cc3occc3n12 | inactive: -16.2%
CCOC(=O)c1noc2ncn(CC(=O)Nc3cccc(C(F)(F)F)c3)c(=O)c12 | active: 64.8%
Cc1cccc(NC(=O)CCn2cnc3ccccc3c2=O)c1 | inactive: -9.17%
CCOc1ccc(-n2nc3ccc(NC(=O)c4ccc(OC)c(Cl)c4)cc3n2)cc1 | inactive: 8.15%
Cc1cc(Nc2cccc(Cl)c2)nc2ccc(NC(=O)c3cncc(Br)c3)cc12 | inactive: -26.4%
O=C(CC1N=C2c3ccccc3N=C(SCc3ccccc3Cl)N2C1=O)NCCc1ccccc1 (configuration not stated) | inactive: -3.53%
CCCCn1c(=O)n(-c2cc(OC)ccc2OC)c(=O)c2c3c(sc21)CN(C(C)=O)CC3 | inactive: -6.66%
COc1ccc(-n2nc(C(=O)Nc3cc(C)ccn3)c3c4ccccc4n(C)c3c2=O)cc1 | inactive: -7.37%
CCC(C(=O)NCc1ccccc1OC)n1nc(C)n2c(cc3occc32)c1=O (configuration not stated) | inactive: -20.3%
Cc1ccc2c(=O)cc(C(=O)Nc3sc4c(c3C(=O)NCC3CCCO3)CCC4)oc2c1 (configuration not stated) | inactive: 7.69%
Cc1oc(-c2ccc(C(=O)NCc3ccccc3)cc2)nc1CN1CCc2ccccc21 | inactive: -3.4%
COc1ccc(-c2nc3ccccc3s2)cc1NC(=O)c1ccccc1F | inactive: -3.02%
O=C(Cc1cccs1)NC1CC(=O)N(c2ccc(F)cc2)C1 (configuration not stated) | inactive: 0.987%
CSc1cccc(NC(=O)Nc2ccccc2OCc2cc(=O)n3cc(C)ccc3n2)c1 | inactive: -15%
CCOCCCNC(=O)c1ccc(-n2c(-c3ccccc3)cc3c2CCC(C)C3)cc1 (configuration not stated) | inactive: -36.2%
COc1ccc(-c2csc3ncnc(Nc4cccc(OC)c4)c23)cc1 | inactive: -0.0939%
COc1ccc(C(=O)Nc2ccc3nc(SCC(=O)N4CCc5ccccc54)sc3c2)cc1 | inactive: -5.32%
Cc1ccc2c(c1)C(c1ccc(F)cc1)N(C(=O)c1ccc(S(=O)(=O)N3CCCCC3)cc1)CC(=O)N2 (configuration not stated) | inactive: -7.52%
CCC(=O)N1CCc2cc(Br)cc(S(=O)(=O)CCC(=O)N3CCN(c4cccc(C)c4)C(C)C3)c21 (configuration not stated) | inactive: -13.2%
CCc1ccc(S(=O)(=O)Nc2ccc3c(c2)n(C)c(=O)c(=O)n3C)cc1 | inactive: 1.8%
O=C(NCc1ccc(Cl)cc1)NCc1noc2ccccc12 | inactive: 3.67%
COc1ccc(NC(=O)CCNS(=O)(=O)c2ccc3c(c2)CCCC(=O)N3)cc1Cl | inactive: 13.1%
COc1ccc(-n2nc3cc(C)c(NC(=O)c4ccc(-c5ccc(Cl)cc5)o4)cc3n2)cc1 | inactive: 1.03%
Cc1cc(OCC(=O)Nc2cc(-c3nc4ncccc4o3)ccc2C)ccc1Cl | inactive: 0.712%
COC(=O)c1ccccc1NC(=O)C1=CC(c2cccs2)=NS(=O)(=O)N1C | inactive: -1.36%

SMILES | activation
Cc1ccc(S(=O)(=O)c2nnn(-c3ccc(F)c(Cl)c3)c2N)cc1 | inactive: -10.9%
Cc1nn(CC(=O)Nc2ccc(OC(F)(F)F)cc2)c(=O)c2c(C)n(-c3ccc(Cl)cc3)nc12 | inactive: -5.06%
Cc1cccc(C)c1Nc1c(-c2ccccn2)nc2c(C)cccn12 | inactive: -34.4%
CCOc1ccc2nc(N3CCCC(C(=O)NCCc4ccc(OCC)c(OCC)c4)C3)sc2c1 (configuration not stated) | inactive: -10.4%
COc1ccc(CCNC(=O)c2nc(-c3ccc(Cl)cc3)n3c2CCCCC3)c(OC)c1 | inactive: -14.5%
Cc1ccc(C)c(N2CCN(S(=O)(=O)c3ccc4c(c3)C(C(C)C)C(=O)N4)CC2)c1 (configuration not stated) | inactive: 33.1%
CSc1ncc(C(=O)NCc2ccccc2F)c(-c2ccccc2)n1 | inactive: -3.97%
CCCc1ccc(OCC(=O)Nc2sc(C(=O)OCC)c(C)c2C(=O)OCC)cc1 | inactive: -4.52%
CCc1ccccc1NS(=O)(=O)c1ccc2[nH]cc(C(=O)N(CC)Cc3ccccc3)c(=O)c2c1 | inactive: -0.339%
COc1ccc(C2NC(=O)N(C)C3=C2C(=O)N(c2ccc(C(=O)O)cc2)C3)cc1 (configuration not stated) | inactive: -8.42%
COc1ccc(OC)c(C2CC(=O)Nc3c2c(=O)[nH]c2ncnn32)c1 (configuration not stated) | inactive: 16.2%
CCc1ccc(C2CC(=O)c3c([nH]c(C(=O)OC4CCCC4)c3C)C2)cc1 (configuration not stated) | inactive: -5.22%
COc1cccc(-c2nc(CS(=O)(=O)CC(=O)N3CCN(c4cc(C)ccc4C)CC3)c(C)o2)c1 | inactive: 3.86%
CCOC(=O)c1ccc(CN(Cc2ccc(F)cc2)S(=O)(=O)c2ccc(F)c(C(=O)Nc3c(C)cccc3C)c2)cc1 | inactive: -27.4%
CCc1ccc2occ(CC(=O)Nc3c(C(=O)c4ccc(C)cc4)oc4ccccc34)c2c1 | inactive: 5.69%
CCOc1ccc(NC(=O)Cn2c(=O)n(CCCCCC(=O)NCc3ccccc3)c(=O)c3sccc32)cc1 | inactive: -3.22%
O=[N+]([O-])c1cccc(S(=O)(=O)NCCNS(=O)(=O)c2cccc([N+](=O)[O-])c2)c1 | inactive: 0.264%
COc1ccc(S(=O)(=O)Nc2c(C)nc3nc[nH]n3c2=O)cc1 | inactive: -20.2%
Cc1cc(S(=O)(=O)C(CNC(=O)c2ccc(F)c(F)c2)c2cccs2)ccc1F (configuration not stated) | inactive: -7.26%
Cc1cc(C)c2c(CC(=O)Nc3ccc(S(=O)(=O)Nc4nc(C)cc(C)n4)cc3)coc2c1 | inactive: -3%
COc1ccc(CNC(=O)c2cc3cc(OC)ccc3oc2=O)cc1 | inactive: -5.55%
Cc1ccc(S(=O)(=O)n2nc(-c3ccc(Cl)cc3)nc2NCc2ccc(F)cc2)cc1 | inactive: -6.53%
CC(=O)N1CCCc2cc(S(=O)(=O)N3CCCC(C(=O)N4CCN(c5ccccc5)CC4)C3)ccc21 (configuration not stated) | inactive: 16.5%
O=S(=O)(NCCc1csc2nc(-c3ccccc3)nn12)c1cc(F)ccc1F | inactive: 12.4%
Cc1ccc(-c2ccc(=O)n(CC(=O)NCCc3ccccc3)n2)cc1 | inactive: -11.1%
COc1ccc2c(c1)cc1c(=O)n(CC(=O)NC(C)CCc3ccccc3)nc(C)n12 (configuration not stated) | inactive: -8.68%
